Screen size: about 94,000 compounds; about 6,200 (6.6%) were called active. The shares of active, inactive and inconclusive entries below differ from those in the screen. Calls follow the shape of the dose curve; as a rule, active = well fitted inhibition curve with a large enough effect; inconclusive = small, poorly fitted or top-dose-only effect; inactive = flat fitted curve, though single readings scatter. Where the call is inconclusive, the potency comes from a doubtful curve fit.
Test: Cytotoxic Profiling in HEK 293 Cell Line of Diverse Libraries Using Quantitative High-Throughput Screening; also: nearly all actives have a fitted effect of over 60% in size
Settings: HEK 293 viability, ATP luminescence (CellTiter-Glo), 48-72 h; series mostly up to 115 µM
In short: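 Viability of HEK 293 cells, plated at 250 cells/well, was judged by cellular ATP after compound treatment for 48 or 72 hr. Luminescence was imaged 10 min after CellTiter-Glo addition at room temperature.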
Potency is read from the fitted curve at half-maximal effect; tags tell the direction and shape of the fitted curve.

| SMILES | Potency |
| --- | --- |
| CN1CCN(c2cc(=O)c3ccnc(-c4cccc(F)c4)c3o2)CC1 | inactive |
| CCCN1CCc2[nH]cnc2C12CCN(C(=O)c1cnn3ccccc13)CC2 | inactive |
| Cc1cccc(-n2nc(-c3c(C)nc4scc(CC(=O)N5CCCC5)n4c3=O)cc2C)c1 | inactive |
| COc1ncc(CN2CCc3c(n(Cc4cccnc4)n(-c4ccccc4)c3=O)C2)cn1 | inactive |
| COc1ccc(C(=O)N2CCC(=O)N(CCC#N)C[C@H]3COc4ccc(C)cc4[C@H]32)cc1 | inconclusive: 89.1 µM [inhibitor, single point] |
| Cc1nn(C)c(C)c1CCCN(C)C(=O)c1ccc2c(c1)C(O)CCCCCN2C (stereo unspecified) | active: 35.5 µM |
| COc1ccc(-c2ccnc3nc(Cc4ccc(F)cc4)nn23)cc1 | inconclusive: 7.08 µM [inhibitor, full curve, poor fit] |
| OC(c1ccc2c(c1)CCO2)c1nc(Nc2cccc(C(F)(F)F)c2)n[nH]1 (stereo unspecified) | active: 70.8 µM |
| CC(C)CCN1CC(CN[S+](=O)([O-])c2ccccc2)C2(C1)CN(c1ccccc1)C2 (stereo unspecified) | inconclusive: 63.1 µM [inhibitor, full curve, poor fit] |
| CC(C)NC(=O)c1cc(-c2ccc([S+](C)(=O)[O-])cc2)c2cccn2n1 | inconclusive: 89.1 µM [inhibitor, single point] |
| O=C(Nc1ccc2c(c1)OCCO2)N1CCCCCC1c1nc(-c2cccnc2)no1 (stereo unspecified) | inactive |
| CCOC(=O)C1(Cc2ccccc2F)CCCN(C(=O)c2cccs2)C1 (stereo unspecified) | inconclusive: 89.1 µM [inhibitor, single point] |
| COc1ccc(NC(=O)c2ccc3c(c2)N(C)C2CCCCN2C3=O)cc1F (stereo unspecified) | inconclusive: 50.1 µM [inhibitor, partial curve, poor fit] |
| O=C(NCC1CN(S(=O)(=O)c2cccnc2)CC12CCOCC2)N1CCCC1 (stereo unspecified) | inactive |
| Cc1ccc(NC(=O)N2CC(c3nnc(C(C)C)o3)C3(CCOCC3)C2)cc1 (stereo unspecified) | inconclusive: 100 µM [inhibitor, single point] |
| O=C(NC1CCN(c2ccnc3ccnn23)CC1)c1ccc(C(F)(F)F)cc1 | inconclusive: 50.1 µM [inhibitor, partial curve, poor fit] |
| CN(Cc1ccccc1)C(=O)c1noc(-c2ccc(F)cc2)n1 | inconclusive: 50.1 µM [inhibitor, partial curve, poor fit] |
| COC(=O)N1CCC(N2C(=O)c3c(c(C)nn3-c3ccccc3)C2C(C)C)CC1 (stereo unspecified) | inconclusive: 44.7 µM [inhibitor, partial curve, poor fit] |
| NC(=O)c1noc(CN2CCOc3c(O)cc(-c4csc5ccccc45)cc3C2)n1 | inconclusive: 50.1 µM [inhibitor, partial curve, poor fit] |
| Cc1nc2cccnc2n1CC1CCCN(C(=O)Nc2ccc3c(c2)OCCO3)C1 (stereo unspecified) | inconclusive: 44.7 µM [inhibitor, partial curve, poor fit] |
| CC(=O)N1CCC(N2CCN3C(=O)N(Cc4ccccn4)C[C@H]3C2)CC1 | inactive |
| CCN1CCCCC1C(=O)N1CCC2(CC1)Nc1ccccc1NC2=O (stereo unspecified) | inactive |

| SMILES | Potency |
| --- | --- |
| CN(CC1CCOCC1)S(=O)(=O)c1ccc(F)c(Cl)c1 | inconclusive: 79.4 µM [inhibitor, single point] |
| COc1cccc(-c2noc(NCc3cccc(Cl)c3)n2)c1OC | active: 79.4 µM |
| COc1ccc(OCC2CN(Cc3cccc(F)c3)[S+](=O)([O-])c3cccnc3O2)cc1 (stereo unspecified) | active: 28.2 µM |
| Cc1cnc(C2CCC2)n1CC1CCN(C(=O)C2(c3ccccc3)CC2)CC1 | inactive |
| COc1cc(-c2nc(CN3CCSCC3)c(C)o2)ccc1F | inactive |
| O=C(NC1CCCN(c2cc(-c3ccc(F)cc3)[nH]n2)C1)c1ccccc1F (stereo unspecified) | inconclusive: 44.7 µM [inhibitor, partial curve, poor fit] |
| COCCNC(=O)C1CCCN1c1nccc(Nc2ccc(C)cc2)n1 (stereo unspecified) | inconclusive: 39.8 µM [inhibitor, partial curve, poor fit] |
| O=C1CCCCCN1CC(=O)N1CCCC(OCc2ccccc2)C1 (stereo unspecified) | inactive |
| C=CCN1CCN(C(=O)CCC[C@@H]2[C@H]3CCCN4CCC[C@@H](CN2C(=O)c2ccccc2)[C@@H]34)CC1 | inactive |
| O=C(NC1CCCCCC1)C1CCN(C(=O)c2ncn3c2COC(c2ccc(Cl)cc2)C3)CC1 (stereo unspecified) | inconclusive: 89.1 µM [inhibitor, single point] |
| COc1cccc(CN2Cc3nc(-c4cc5ccccc5o4)ccc3OCC2=O)c1 | active: 79.4 µM |
| C[C@@H](c1ccccc1)N(C)C(=O)c1cn(Cc2cccc(C(F)(F)F)c2)nn1 | inconclusive: 89.1 µM [inhibitor, partial curve] |
| CC1Oc2ccc(NC(=O)c3ccc(F)cc3F)cc2CN(C2CCCc3ccccc32)C1=O (stereo unspecified) | inconclusive: 79.4 µM [inhibitor, partial curve, poor fit] |
| Cc1ccc(N2Cc3c(NC4CCCCC4)ncnc3N(C)CC2=O)cc1 | inactive |
| O=C(c1ccc(Br)o1)N1CCc2nn(CC3CC3)c(=O)n2CC1 | inactive |
| Cc1cn2nc(C(=O)Nc3cc(F)cc(F)c3)cc2c(N(C)Cc2ccccc2)n1 | inconclusive: 31.6 µM [inhibitor, partial curve] |
| COC(=O)C1CCN([C@H]2[C@@H]3OC[C@@H](O3)[C@@H](NC(=O)Nc3cccc(C#N)c3)[C@@H]2O)CC1 | inactive |
| COc1ccc(C(=O)N2CCN(c3cc(C(F)(F)F)ncn3)CC2)cc1F | inconclusive: 31.6 µM [inhibitor, partial curve, poor fit] |
| Cc1cccc(-c2noc([C@@H]3Cc4nc[nH]c4CN3Cc3cccc(C#N)c3)n2)c1 | inconclusive: 79.4 µM [inhibitor, partial curve, poor fit] |
| COc1ccccc1Cn1c(=O)c(C(=O)N2CCN(C(=O)c3ccccc3)CC2)nc2cccnc21 | inactive |
| COc1ccc(CN2CCC3(CC(Cc4ccccc4)=NO3)C2)cc1 (stereo unspecified) | inconclusive: 89.1 µM [inhibitor, single point] |
| CC1CCN(C(=O)CN2C(=O)NC3(CCC(C(C)(C)C)CC3)C2=O)CC1 (stereo unspecified) | inconclusive: 20 µM [inhibitor, partial curve, poor fit] |

| SMILES | Potency |
| --- | --- |
| COc1ccccc1-c1n[nH]c2c1CC(=O)N(Cc1ccccc1)C2 | inconclusive: 112 µM [inhibitor, partial curve, poor fit] |
| COc1ccc(Cl)cc1-n1nc(C2CC2)nc1C(C)Cn1cncn1 (stereo unspecified) | inactive |
| CC(=O)NC1(C)CCN(Cc2ccc(-c3cccc(F)c3)cc2)C1 (stereo unspecified) | inconclusive: 79.4 µM [inhibitor, partial curve, poor fit] |
| O=C(NCCc1ccc(Cl)cc1)c1nc(-c2cccnc2)c2ccccn12 | active: 31.6 µM |
| CCOC(=O)C1=CN(CC(=O)Nc2ccc(C)c(C)c2)S(=O)(=O)N=C1C | inconclusive: 79.4 µM [inhibitor, partial curve, poor fit] |
| COc1cccc([S+](=O)([O-])N2CCN(C(=O)c3nc4cccnc4n(-c4ccccc4OC)c3=O)CC2)c1 | inactive |
| CN(c1cc(=O)c2ccnc(Nc3ccn(C)n3)c2o1)C1CCOCC1 | inactive |
| O=S(=O)(c1cccs1)N1CCC(c2nc(CCOc3ccc(F)cc3)no2)C1 (stereo unspecified) | inconclusive: 79.4 µM [inhibitor, partial curve, poor fit] |
| COc1ccc2cc(-c3[nH]ncc3CN3CCN(c4cccc(C)n4)CC3)ccc2c1 | active: 20 µM |
| COc1ccc(CN2CCC(N3CCCCCC3=O)CC2)cc1 | inconclusive: 126 µM [inhibitor, single point] |
| CSc1ccc(CNC(=O)CCn2ccn3nc4c(c3c2=O)CCCC4)cc1 | inconclusive: 89.1 µM [inhibitor, single point] |
| CNC(=O)c1cc(C2CC2)nc2onc(C3CCCN3C(=O)c3ccc(Cl)cc3)c12 (stereo unspecified) | inconclusive: 89.1 µM [inhibitor, single point] |
| O=S(=O)(NC1CCN(c2ccc3nnc(-c4ccccc4)n3n2)CC1)c1cccs1 | inconclusive: 22.4 µM [inhibitor, full curve, poor fit] |
| CCNC(=O)N1CCOc2ccc(CCC(=O)N3CCCCC3c3cccnc3)cc2C1 (stereo unspecified) | inconclusive: 89.1 µM [inhibitor, single point] |
| CC1(CNc2ccccc2)COc2ccc(C(=O)N3CC(O)C3)cc2N1 (stereo unspecified) | inconclusive: 89.1 µM [inhibitor, partial curve, poor fit] |
| CCNC(=O)CCc1c(C)nn(-c2cccc(C)c2)c1Oc1ccccc1 | inconclusive: 39.8 µM [inhibitor, full curve, poor fit] |
| CNC(=O)c1cccc(-c2ccc(C(C)(C)C#N)cc2)n1 | inconclusive: 50.1 µM [inhibitor, partial curve, poor fit] |
| COc1ccc(CNC(=O)[C@@]23CCCC[C@H]2N(CCC(C)C)C(=O)CC3)cc1OC | inconclusive: 100 µM [inhibitor, single point] |
| Cn1cc(CN2C[C@H](C(=O)Nc3cccc(F)c3)C[C@@H]2c2cccc(C(F)(F)F)c2)cn1 | inconclusive: 79.4 µM [inhibitor, partial curve, poor fit] |
| COc1ccccc1CN1CCc2nc(C(=O)Nc3ccccc3)oc2CC1 | inconclusive: 100 µM [inhibitor, partial curve, poor fit] |
| Cc1ccc(-c2cc3c(=O)n(CCNC(=O)c4ccc5c(c4)OCO5)ccn3n2)c(C)c1 | inactive |
| COc1cccc(C(=O)N2CCc3nc(C4CC4)nc(-c4ccc(O)cc4)c3CC2)c1 | inconclusive: 50.1 µM [inhibitor, partial curve, poor fit] |
